Test results from the supplement of paper PMC4466236.
Whole data set: some 33,000 sequences, median “E-score (dimensionless, -0.5 to 0.5)” near -0.058, cut for the highest 2% near 0.35. The list shows a part of the results.

Test system: MvaT
Assay: PBM 8-mer E-score (mean of HK and ME arrays) (E-score (dimensionless, -0.5 to 0.5)); higher = stronger relative binding preference; most listed sequences are background and not binding sites
Method in brief: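 Full-length P. aeruginosa MvaT carrying an N-terminal glutathione S-transferase tag was tested by protein binding microarray following a previously described protocol. Two universal double-stranded 60-mer arrays, ME and HK, were used, each with a constant 25-mer primer region and a variable 35-mer region covering all 8-mers. The rank-based E-score is the mean of the two arrays, parsed with a custom script. Its range runs from -0.5 to 0.5 for each 8-mer.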

| Sequence | PBM 8-mer E-score |
| --- | --- |
| AGGGCAAT | -0.0363 |
| AAGGAAAA | 0.0771 |
| CCAGTATC | -0.091 |
| CTATGCGA | -0.129 |
| CCTTGAGA | -0.0961 |
| AACTTAAT | 0.381 |
| ACATAGTA | 0.278 |
| AACATATG | 0.254 |
| AGGGTAAA | 0.134 |
| CCAATCAA | 0.00231 |
| CCCGTGCG | -0.273 |
| GGCTAGCA | -0.0963 |
| ACCAGATC | -0.169 |
| CATGACCA | -0.0462 |
| ATAATCAT | 0.266 |
| AGAGGAAA | -0.146 |
| CTGTAGAA | 0.0708 |
| AACTCCGA | 0.0444 |
| ACTAACAG | 0.0841 |
| CCAATTAA | 0.306 |
| AAAAACGG | 0.0301 |
| AGTGTTAA | 0.175 |
| GAGTCAGA | -0.134 |
| CCGTTATA | 0.308 |
| ACACAGAG | -0.0634 |

| Sequence | PBM 8-mer E-score |
| --- | --- |
| ACTGAGCC | -0.174 |
| AGGACAAT | 0.0949 |
| ATGCATTA | 0.241 |
| GATAGCAA | 0.0375 |
| AAAACAGT | 0.242 |
| ACAGCCCG | -0.169 |
| ATAGTCTC | 0.0377 |
| ACTCAGAC | -0.142 |
| AGTACGGA | -0.0816 |
| AAAGCTTT | 0.1 |
| AGTCTGAA | -0.153 |
| ACGCCTTG | -0.161 |
| AGAGAGAA | -0.213 |
| AAAAGGCC | -0.0414 |
| CTGATGGA | -0.141 |
| AATCTCTG | -0.0793 |
| CAATAAAA | 0.286 |
| CCGGCTGC | -0.309 |
| CACAACGA | 0.0491 |
| CAAGGTGG | -0.121 |
| CGGTTTCA | -0.118 |
| CCTTGTGA | -0.148 |
| CGCTGCCC | -0.265 |
| AAATCGCA | -0.0304 |
| AGCTAAGG | -0.212 |

| Sequence | PBM 8-mer E-score |
| --- | --- |
| ACCACCAC | -0.0821 |
| AGAAATTC | 0.0242 |
| AATTATTC | 0.352 |
| CGGGGTAG | -0.19 |
| CAGTGCCG | -0.171 |
| GCAGATTA | 0.108 |
| ATAACTGG | 0.213 |
| GAAGGAGA | -0.255 |
| AAATCCAA | 0.113 |
| CAGAGAGA | -0.148 |
| GGAGAACA | 0.0627 |
| CAAACCTG | 0.021 |
| CTAGCAAG | -0.171 |
| ACAATCCG | 0.00493 |
| GGTAAAAC | -0.00823 |
| CACGTATC | -0.0917 |
| CAGGGTCA | -0.204 |
| ATGGAGGA | -0.25 |
| AGGGCGCA | -0.172 |
| CTGAGCGA | -0.135 |
| GAGGCCTA | -0.23 |
| ATTGCAAT | 0.27 |
| ATCGACAA | 0.105 |
| AGGATGGA | -0.127 |
| AGTACCCC | -0.152 |

| Sequence | PBM 8-mer E-score |
| --- | --- |
| ATATTAGG | 0.309 |
| GGATAACA | 0.226 |
| ACGTTCAA | -0.00603 |
| AGCATGTC | -0.109 |
| CCCTAGAG | -0.225 |
| GCCTATCC | -0.15 |
| ATCAAAGA | -0.0471 |
| GATTCGGC | -0.177 |
| TAACGACA | 0.158 |
| GTAGCTCA | -0.186 |
| AATCGAAC | 0.176 |
| AGCCTGCG | -0.264 |
| GTCCCCAC | -0.299 |
| GAGTGGTA | 0.0781 |
| ATGTCAAT | 0.0951 |
| ATCCCATC | -0.0397 |
| ATTTGGGA | 0.113 |
| ACGTGCCT | -0.202 |
| GTTACAAC | 0.171 |
| ATCTTCGG | -0.00976 |
| AAACTAAT | 0.335 |
| CGGACCCC | -0.254 |
| ACATCAGC | -0.0441 |
| GACTAGAA | 0.173 |
| ATCGGCGG | -0.201 |

| Sequence | PBM 8-mer E-score |
| --- | --- |
| CTTGGGTA | -0.118 |
| GTATCAGA | 0.0638 |
| GGACTGCA | -0.0995 |
| CAGTTGTC | -0.0191 |
| TATAGGAA | 0.0701 |
| GACTCACC | -0.19 |
| GCCACTCA | -0.136 |
| CTTCGAAC | 0.0106 |
| AATAACAC | 0.331 |
| GACCAAGC | -0.244 |
| AAACCCAG | 0.0361 |
| ACATCAAC | 0.013 |
| CCACCAAG | -0.139 |
| ATAGCCAG | -0.194 |
| GAAAAGGA | -0.0534 |
| GGACAAAC | 0.017 |
| ATCAATGC | -0.0304 |
| AACATCCA | 0.201 |
| TCCTGCCA | -0.192 |
| GAGCTAAA | -0.16 |
| AAATTGAT | 0.253 |
| ATTTGTGA | 0.131 |
| CCTGATCG | -0.219 |
| ACGGGTCA | -0.315 |
| ATGGAAAA | 0.116 |

| Sequence | PBM 8-mer E-score |
| --- | --- |
| ACCTCCAA | -0.114 |
| ACAACTGC | 0.00934 |
| AAATACAT | 0.33 |
| ATGATCTG | -0.0734 |
| AGGGACCT | -0.25 |
| CCGGGAGC | -0.164 |
| CAACATCC | 0.0934 |
| CGACAAGC | -0.242 |
| CGCTGTGC | -0.129 |
| CAAACCAC | 0.0416 |
| ACATCAAT | 0.155 |
| GAAGTTAA | 0.317 |
| CCAAAGTA | 0.0463 |
| AGGCTGAG | -0.218 |
| ATTTGACG | 0.0587 |
| GAACCCAA | -0.023 |
| ATCAGATG | -0.0112 |
| CCTCCCTC | -0.212 |
| GCAACTCC | -0.0294 |
| CGTGATAC | -0.076 |
| AATGCGGC | -0.0157 |
| GGATCTCA | -0.294 |
| GTATGGGA | -0.132 |
| ACACTCGC | -0.00864 |
| CGCTAAGC | -0.208 |

| Sequence | PBM 8-mer E-score |
| --- | --- |
| AGGACTGA | -0.22 |
| AGTCATTA | 0.14 |
| ACAGAGAC | -0.141 |
| GAGTTGGA | -0.079 |
| GACATCCA | -0.0444 |
| GCCAATCA | 0.0332 |
| GAGGCAGC | -0.282 |
| CGGTGGTA | -0.0955 |
| GTAGGTCA | -0.116 |
| ACCTGCAC | -0.11 |
| CATATCGC | 0.0191 |
| GGGGGAAC | -0.217 |
| AAACCACG | 0.0879 |
| CCCGAGAC | -0.177 |
| GAAATTGC | 0.158 |
| GGTTACAC | -0.12 |
| ATTAAATC | 0.382 |
| ATTGATTA | 0.285 |
| GTATAATA | 0.416 |
| ACGTCGCC | -0.0866 |
| ACCGGGGG | -0.206 |
| GTCCTAAA | 0.00186 |
